Screen size: about 110,000 compounds; about 40 (0.04%) were called active. Inconclusive results, whose numbers are uncertain, are shown with a selection of clear calls. Calls follow the shape of the dose curve; as a rule, active = well fitted curve in the direction sought with a large enough effect in the signal ratio (not every such curve was filed as active); inconclusive = small, poorly fitted or top-dose-only effect, or a change in a side signal; inactive = flat fitted curve, though single readings scatter; the % refers to the signal ratio. Potencies beside an inconclusive call are fits to weak or partial responses and may not hold up.
Assay: IkB Signaling;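 as to IkBa stabilization activation: 0% = basal untreated cells and 100% = reference inhibitor full response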
Details: ABC-DLBCL IkBa-CBG/CBR dual luciferase ratio (green luciferase fused to IkBa over red control in OCI-Ly3 lymphoma cells), 4 h; IkBa stabilization activation: at 57.1 µM (top of the series), scaled: untreated 0%, proteasome inhibitor 100% unless noted
Summary of the method: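 Luminescence ratio of IκBα-fused green versus native red beetle luciferase in OCI-Ly3 cells, 4 h post-doxycycline with compound; red signal alone, scaled from basal (0%) to zero light (-100%), flagged nonspecific or cytotoxic effects.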
Potency is read from the fitted curve at half-maximal effect.

Row | SMILES | IkBa stabilization activation | Potency
1 | O=C1c2oc3ccccc3c(=O)c2C(c2cccc(Br)c2)N1Cc1ccco1 (centres undefined) | inactive | –
2 | Nc1ccc2c(c1)CCC2=O | inactive | –
3 | Cc1nn(-c2ccccc2)c(OC(=O)c2ccc(Cl)cc2)c1S(=O)(=O)c1ccccc1 | inconclusive: 6.21% [signal inhibitor] | –
4 | COc1ccc(CNS(=O)(=O)c2cc3c(cc2Cl)NC(=O)CO3)cc1 | inconclusive: 0.186% [signal inhibitor] | –
5 | COc1ccccc1N=c1oc2cc(O)ccc2cc1C(N)=O | inconclusive: 6.41% [signal inhibitor] | –
6 | CCC(=O)Oc1c(Sc2ccc(C)cc2)c(C)nn1-c1ccccc1 | inconclusive: 0.0854% [signal inhibitor] | –
7 | CCOC(=O)c1cccc(NC(=O)CSc2nnc(COc3ccccc3)n2CC)c1 | inconclusive: 0.104% [signal inhibitor] | –
8 | CC(C)(C)c1cc(/C=C(\C#N)C(N)=S)cc(C(C)(C)C)c1O | – | inconclusive: 6.31 µM [signal inhibitor, full curve, poor fit]
9 | Cc1c(Cl)cccc1NC(=O)CSc1nc(=O)[nH]c2c1CCC2 | inconclusive: 2.52% [signal inhibitor] | –
10 | O=S(=O)(c1cccc(Cl)c1)n1c(/C=C/c2ccccc2Cl)nc2ccccc21 | inactive | –
11 | Cc1c2cnn(-c3ccccc3)c(=O)c2c(C)n1CCCC(=O)Nc1cccc(F)c1 | inconclusive: -1.46% [signal inhibitor] | –
12 | COc1ccc(CN(Cc2ccco2)C(=O)COc2ccccc2Cl)cc1 | inconclusive: 3.73% [signal inhibitor] | –
13 | Fc1ccc(-c2nc3n(n2)Cc2ccccc2-3)cc1 | inactive | –
14 | O=C(NCCN1CCN(C(=O)NC2CCCCC2)CC1)NC1CCCCC1 | inactive | –
15 | CCCCOn1c(C)c(C(=O)OCC)c2c3no[n+]([O-])c3ccc21 | inactive | –
16 | COc1cccc(-n2c(SCC(=O)Nc3ccc4c(c3)OCO4)nc3c([nH]c4ccccc43)c2=O)c1 | inconclusive: 3.28% [signal inhibitor] | –
17 | CCN(CC)c1ccc(NC(=O)Cn2nc3c(cc2=O)CCCC3)c(C)c1 | inactive | –
18 | CCc1c(C)sc(NC(=O)c2cc3nc(-c4ccc(OC)cc4)cc(C(F)(F)F)n3n2)c1C(=O)OC | inactive | –
19 | COc1cc(C2c3c(-c4cc(C)ccc4O)n[nH]c3C(=O)N2Cc2ccco2)cc(OC)c1OC (centres undefined) | inconclusive: -0.0347% [signal inhibitor] | –
20 | O=C(O)c1ccc(COc2ccc(CO)cc2Cl)cc1 | – | inconclusive: 15.8 µM [signal inhibitor, partial curve]
21 | COc1ccc(CNc2ncncc2-c2c(C)noc2C)c(OC)c1 | inactive: 2.08% [at 11.4 µM, scaled: untreated 0%, proteasome inhibitor 100%] | –
22 | CC(C)Oc1ccc(C(=O)Nc2nnc3n2CCS3)cc1 | inactive | –
23 | COc1ccccc1OCCSc1nc2ccccc2c(=O)[nH]1 | inactive | –

Row | SMILES | IkBa stabilization activation | Potency
24 | CCCc1nn2c(=O)cc(COC(=O)c3cccc(NC(=O)c4ccc(OCC)cc4)c3)nc2s1 | inconclusive: 7.17% [signal inhibitor] | –
25 | COc1ccc(NC(=O)c2cc(S(=O)(=O)N3CCCC(C)C3)cn2C)c(OC)c1 (centres undefined) | inactive | –
26 | Cc1cc(Cl)ccc1NS(=O)(=O)c1c(C(=O)N2CCCCCC2)c(C)n(C)c1C | inconclusive: 0.0627% [signal inhibitor] | –
27 | Cc1ccc(-c2csc3ncnc(Sc4nnc(CN5CCCCCC5=O)o4)c23)cc1 | – | inconclusive: 3.16 µM [signal inhibitor, partial curve]
28 | COC(=O)c1c(-c2ccc(Cl)cc2)noc1N1CCN(c2ccccc2OC)CC1 | inconclusive: 2.25% [signal inhibitor] | –
29 | COc1ccccc1S(=O)(=O)Cc1ccc(C(=O)N2CCN(c3cc(Cl)ccc3C)CC2)o1 | inconclusive: 2.51% [signal inhibitor] | –
30 | COc1cc(C2CC(=O)Nc3ccc4ccccc4c32)ccc1OC(=O)C(C)C (centres undefined) | inconclusive: 9.46% [signal inhibitor] | –
31 | CC(C)(C)n1ncc2c(=O)n(Cc3c(F)cccc3Cl)cnc21 | inconclusive: 1.81% [signal inhibitor] | –
32 | Cc1ccc2occ(CC(=O)N(Cc3ccc(Cl)cc3)Cc3ccco3)c2c1 | inactive | –
33 | CCCCn1c(CCCNC(=O)c2cccc(C)c2)nc2ccccc21 | inconclusive: -4.85% [signal inhibitor] | –
34 | CCOC(=O)N1CCC(NC(=O)c2cc3c(-c4ccccc4F)nn(C)c3s2)CC1 | inactive | –
35 | Cc1nc2cc(-c3cccc(F)c3)nn2c(C)c1CCC(=O)Nc1ccccc1C(N)=O | – | inconclusive: 25.1 µM [signal inhibitor, partial curve]
36 | Cc1ccccc1-c1nnc(SCC(=O)Nc2ccc(Cl)cc2)n1N | inconclusive: 2.64% [signal inhibitor] | –
37 | COc1ccc(CNc2nc(-c3ccc(Cl)cc3)cc(C(F)(F)F)n2)cc1 | inactive | –
38 | O=C1C(=C2CCCCC2)SC(=S)N1Cc1ccco1 | inconclusive: 6.85% [signal inhibitor] | –
39 | CCCCOc1ccccc1C(=O)N(Cc1sccc1C)C1CCS(=O)(=O)C1 (centres undefined) | inconclusive: -0.925% [signal inhibitor] | –
40 | CCOc1ccc(NC(=O)CSc2c3c(nc4ccccc24)CCCC3)cc1 | – | inconclusive: 15.8 µM [signal inhibitor]
41 | CC(C)(C)c1ccc(C(=O)N2CCCC(c3nc4c(nnn4Cc4cccc(F)c4)c(=O)[nH]3)C2)cc1 (centres undefined) | inconclusive: 1.1% [signal inhibitor] | –
42 | COc1ccc(N2CCN(Cc3nc4c(c(=O)n(C)c(=O)n4C)n3C(C)C)CC2)cc1 | inconclusive: -2.87% [signal inhibitor] | –
43 | CN(C)CCCn1c(-c2ccc(Cl)cc2)csc1=Nc1ccccc1 | inconclusive: -2.6% [signal inhibitor] | –
44 | Cc1ccc2nc(CN3CCN(S(=O)(=O)c4ccc(C(C)C)cc4)CC3)oc2c1 | inconclusive: -3.34% [signal inhibitor] | –
45 | Cc1ccc(C(=O)CSc2nnc(COc3cccc4cccnc34)o2)cc1 | inconclusive: 3.73% [signal inhibitor] | –
46 | CN1CCN(C2=C(Cl)C(=O)N(c3ccc(Cl)cc3)C2=O)CC1 | inconclusive: 9.25% [signal inhibitor] | –

Row | SMILES | IkBa stabilization activation | Potency
47 | Cc1cc(O)c(C(c2ccccc2)N2CCN(c3ccc(F)cc3)CC2)c(=O)n1Cc1ccco1 (centres undefined) | inconclusive: 0.799% [signal inhibitor] | –
48 | Cc1cccc(CNc2ncnc3ccc(-c4c(C)noc4C)cc23)c1 | inconclusive: 14.7% [signal activator] [at 11.4 µM, scaled: untreated 0%, proteasome inhibitor 100%] | –
49 | Cc1ccc(-n2c(CCC(=O)O)ccc2-c2cccs2)cc1Cl | – | inconclusive: 31.6 µM [signal inhibitor, single point]
50 | CCc1ccc(C(=O)CC2(O)C(=O)N(Cc3ccc(C)cc3)c3ccccc32)cc1 (centres undefined) | – | inconclusive: 20 µM [signal inhibitor]
51 | CCc1ccccc1NC(=O)c1cc2nc(-c3ccc(Br)cc3)cc(C(F)(F)F)n2n1 | inactive | –
52 | CC(C)c1nc2ccc(C(=O)NCc3ccccc3Br)cc2o1 | inconclusive: 4.27% [signal inhibitor] | –
53 | CC(C)OCCCN1C(=O)c2[nH]nc(-c3ccccc3O)c2C1c1ccccc1F (centres undefined) | inconclusive: 0.937% [signal inhibitor] | –
54 | CCOc1ccccc1N1CC(c2nc3ccccc3n2CCCOc2ccc(OC)cc2)CC1=O (centres undefined) | inconclusive: -1.23% [signal inhibitor] | –
55 | COc1ccc2nc(NC(=O)CN(c3ccc(C)cc3)S(=O)(=O)c3c(C)nn(C)c3C)sc2c1 | inconclusive: -0.486% [signal inhibitor] | –
56 | O=C(NCC1CCN(Cc2cccc(Cl)c2)CC1)Nc1ccc(F)c(Cl)c1 | inconclusive: 3.69% [signal inhibitor] | –
57 | O=C(COc1ccccc1F)Nc1ccc2nc(SCC(=O)N3CCOCC3)sc2c1 | inconclusive: 2.88% [signal inhibitor] | –
58 | O=S(=O)(c1ccccc1)c1nc(-c2ccc(F)cc2)oc1NCc1ccccc1 | inactive | –
59 | Cc1ccc2cc3cc(C(=O)N(C)C4CCCCC4)oc3nc2c1 | inactive | –
60 | O=C(NCCc1ccccc1)c1ccc2c(c1)nc1n2CCOC1 | inactive | –
61 | CCOCCn1c(N2CCN(c3ccc(OC)cc3)CC2)nc2c1c(=O)n(C)c(=O)n2C | inactive | –
62 | O=C(CN1CCOCC1)Nc1nc(-c2ccc3c(c2)CCN3S(=O)(=O)c2ccccc2)cs1 | inconclusive: 3.22% [signal inhibitor] | –
63 | Cc1ccc(S(=O)(=O)Nc2cc(Cl)c3oc4c(c3c2)CCCC4)cc1 | inconclusive: -6.87% [signal inhibitor] | –
64 | CCOc1ccc(CNC(=O)CSc2c3c(nc4cc(Cl)ccc24)CCCC3)cc1 | inconclusive: 7.68% [signal inhibitor] | –
65 | COc1ccc(C(=O)NC(c2ccccc2Cl)c2cc(Cl)c3cccnc3c2O)cc1 (centres undefined) | inconclusive: 16.4% [signal inhibitor] | –
66 | CCOC(=O)c1oc2c(c1C)-c1nn(Cc3cccc(Cl)c3)cc1CC2 | inconclusive: 1.53% [signal inhibitor] | –
67 | O=C(CN(Cc1ccco1)C(=O)CNS(=O)(=O)c1ccccc1)NCc1ccccc1 | inactive | –
68 | CN(Cc1ccco1)c1cc(-c2cccnc2)ncn1 | inactive: 0.0852% [at 11.4 µM, scaled: untreated 0%, proteasome inhibitor 100%] | –
69 | CC(C)Oc1ccc(C(=O)N(Cc2ccc(N(C)C)cc2)Cc2ccco2)cc1 | inconclusive: 0.815% [signal inhibitor] | –
